In PubChem BioAssay AID1347428 (National Center for Advancing Translational Sciences (NCATS), 2020):
In all, about 91,000 compounds went through this assay and about 290 (0.32%) were called active. This list was built around the results that the source calls inconclusive (neither active nor inactive); the mix of calls is not that of the screen. Calls come from the whole dose curve; as a rule, active = well fitted inhibition curve with a large enough effect; inconclusive = small, poorly fitted or top-dose-only effect; inactive = no such curve, though single readings can be large or run the other way. Potencies beside an inconclusive call are fits to weak or partial responses and may not hold up.

Molecular target: Single-stranded DNA cytosine deaminase (Homo sapiens) (UniProt Q9GZX7)
UniProt Q9GZX7, sequence (Q9GZX7 whole entry, looked up): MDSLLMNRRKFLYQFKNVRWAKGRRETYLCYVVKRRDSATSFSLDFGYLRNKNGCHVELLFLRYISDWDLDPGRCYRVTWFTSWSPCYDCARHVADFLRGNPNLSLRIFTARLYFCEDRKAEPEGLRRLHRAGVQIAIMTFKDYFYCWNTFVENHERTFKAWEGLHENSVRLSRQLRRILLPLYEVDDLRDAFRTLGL
Assay: Primary qHTS assay for inhibitors of Activation Induced Cytidine Deaminase (AID): AID signal; note: nearly all actives have a fitted effect of over 25% in size
Conditions: AID deamination FRET fluorescence, UDG-coupled, 4 h; series mostly up to 115 µM
Potency is the fitted concentration of half-maximal effect; tags give direction and shape of the fitted curve.

| SMILES | Potency |
| --- | --- |
| CCOc1cc(CNCCSc2nnnn2C)ccc1OCc1ccc(Cl)cc1Cl | inconclusive: 20 µM [inhibitor, full curve, poor fit] |
| Cc1ccc2sc(N(CCCN(C)C)C(=O)c3ccco3)nc2c1C | inconclusive: 89.1 µM [inhibitor, single point] |
| Cc1nc(N2CCOCC2)ncc1-c1cc(=O)[nH]c(Nc2cccc(C(F)(F)F)c2)n1 | inactive |
| COc1cc(/C=N/O)cc(I)c1O | inactive |
| CCCn1nc(C(=O)NCCc2cccs2)c2ccccc2c1=O | inactive |
| Cc1ccc(-n2ncc(C(=O)NCCc3ccsc3)c2C2CCN(C(=O)OC(C)(C)C)CC2)c(C)c1 | inconclusive: 50.1 µM [inhibitor, partial curve, poor fit] |
| COc1ccccc1-n1c(SCC(N)=O)nc2c(c1=O)C1(CCCCC1)Cc1ccccc1-2 | inactive |
| C[N+]1(Cc2ccccc2)CCN(/C=C/C(=O)C(F)(F)F)CC1 | inactive |
| Cc1ccc(CN2CCCn3nc(C(=O)NCc4ccccc4Cl)cc3C2=O)cc1 | inconclusive: 50.1 µM [inhibitor, partial curve, poor fit] |
| CCN1CCN(C(=O)c2ccc3c(c2)N(Cc2ccccc2)C(=O)c2ccccc2S3=O)CC1 (configuration not stated) | inconclusive: 89.1 µM [inhibitor, single point] |
| COc1cccc(NC(=O)CN(Cc2ccccc2)S(=O)(=O)c2ccc3nc(C)sc3c2)c1 | inconclusive: 28.2 µM [inhibitor, partial curve, poor fit] |
| CCOC(=O)c1cc(NC(=O)c2cc(Br)cc(C)c2OC)ccc1N1CCOCC1 | inactive |
| Cc1ccccc1OCCN(C)Cc1cc(=O)oc2c(C)c(O)ccc12 | inconclusive: 79.4 µM [inhibitor, partial curve, poor fit] |
| CC(C)c1nnc(NC(=O)c2nc(SCc3ccc(F)cc3)ncc2Cl)s1 | inconclusive: 50.1 µM [inhibitor, partial curve, poor fit] |
| COc1cc(C(=O)Nc2cc(Cl)ccc2OCC2CCCO2)cc(OC)c1OC (configuration not stated) | inactive |
| O=C(CSc1ncnc2nc[nH]c12)NCc1cccc(Cl)c1 | inactive |
| Cc1ccccc1N1CC(C(=O)Nc2ccccc2C(=O)N(C)Cc2ccccc2)CC1=O (configuration not stated) | inactive |
| CCCCN(C)CC(O)Cn1cc(/C=C/C(=O)c2ccc(OC)c(OC)c2)c2ccccc21 (configuration not stated) | inconclusive: 56.2 µM [inhibitor, partial curve, poor fit] |
| CCc1ccc(/C=C(\C#N)C(=O)Nc2sc(C(=O)N(C)C)c(C)c2C#N)s1 | inactive |
| CCc1ccc(-n2c(SCC(=O)NC(C)CC)nc3n[nH]c(C)c3c2=N)cc1 (configuration not stated) | inconclusive: 79.4 µM [inhibitor, partial curve, poor fit] |
| N#C/C(=C\c1ccc(O)c(O)c1)C(=O)c1ccc(O)c(O)c1 | inconclusive: 56.2 µM [inhibitor, partial curve, poor fit] |
| Cc1ccc(C)c(S(=O)(=O)c2nnn3c2nc(NCc2cccs2)c2sccc23)c1 | inconclusive: 25.1 µM [inhibitor, full curve, poor fit] |
| Cc1ccc(Cl)cc1N1CCN(C(=O)c2cccn2-c2nnc(N3CCCCC3)s2)CC1 | inconclusive: 56.2 µM [inhibitor, partial curve, poor fit] |

| SMILES | Potency |
| --- | --- |
| Cc1ccc(N(C)S(=O)(=O)c2ccc3c(c2)C(C)(C)C(=O)N3C)cc1C | inconclusive: 56.2 µM [inhibitor, single point] |
| Cc1ccc2nc(NC(=O)CCc3ncc(-c4ccccc4Cl)o3)sc2c1 | inactive |
| CC(CNC(=O)CCC1CCCC1)NC(=O)CCC1CCCC1 (configuration not stated) | inactive |
| CCC/C=C(/CC)C[N+]1(C)CCCCC1 | inactive |
| CC(C)c1ccc(NC(c2nnc(-c3ccccc3)o2)c2ccc(F)cc2Cl)cc1 (configuration not stated) | inconclusive: 20 µM [inhibitor, full curve, poor fit] |
| COc1ccccc1OCCn1c(C(C)Oc2ccccc2)nc2ccccc21 (configuration not stated) | inconclusive: 79.4 µM [inhibitor, partial curve, poor fit] |
| O=C(Nc1cccc(-c2nc3ncccc3o2)c1)c1cc2ccccc2o1 | inconclusive: 44.7 µM [inhibitor, partial curve, poor fit] |
| CC(=O)c1cc(-c2ccccc2)n(CCC(=O)Nc2ccc(C(C)C)cc2)c1C | inconclusive: 20 µM [inhibitor, full curve, poor fit] |
| Cc1oc2cc(OCC(=O)Nc3ccc(F)cc3F)ccc2c(=O)c1Oc1ccccc1F | inactive |
| Cc1ccc(-n2ncc(C(=O)N3CCN(Cc4ccccc4)CC3)c2C2CCN(C(=O)OC(C)(C)C)CC2)cc1 | inconclusive: 25.1 µM [inhibitor, partial curve] |
| Cc1cccc(OCC(=O)Nc2ccc3nc(Nc4cccc(C(F)(F)F)c4)cc(C)c3c2)c1 | inconclusive: 31.6 µM [inhibitor, single point] |
| Oc1ccc(-c2nc(-c3ccc(Cl)cc3)cs2)cc1 | inactive |
| COc1ccc(C(=O)Oc2c(Sc3ccccc3)c(C)nn2-c2ccccc2)cc1OC | inconclusive: 22.4 µM [inhibitor, full curve] |
| Cc1ccc(NC(=O)c2cccc(NC(=O)NC(C)C)c2)cc1Cl | inactive |
| COc1ccc(OC)c(CCNc2nccn(-c3ccc(C)c(C)c3)c2=O)c1 | inconclusive: 79.4 µM [inhibitor, single point] |
| O=C(c1cccc(Cl)c1)N(Cc1ccco1)Cc1ccccc1Cl | inconclusive: 56.2 µM [inhibitor, partial curve, poor fit] |
| O=C(Cc1ccc(F)cc1)NCCc1csc(-c2cccc(F)c2)n1 | inactive |
| CCOc1ccc(N(CC)S(=O)(=O)N2CCCC(C(=O)NCc3ccc(Cl)cc3)C2)cc1 (configuration not stated) | inconclusive: 39.8 µM [inhibitor, full curve, poor fit] |
| Cn1nnnc1SCCNCc1ccccc1OCc1ccc(Cl)cc1Cl | inconclusive: 2.82 µM [inhibitor, full curve, poor fit] |
| Cc1ccc(S(=O)(=O)c2nnn3c2nc(NCc2cccs2)c2sccc23)cc1C | inconclusive: 15.8 µM [inhibitor, full curve, poor fit] |
| Cc1ccc2[nH]c3c(c2c1)CCCC3 | inactive |
| CC(=O)c1ccc(C(=O)N(Cc2cccnc2)c2nc3c(Cl)cccc3s2)cc1 | inconclusive: 70.8 µM [inhibitor, partial curve, poor fit] |
| COc1cc2c(cc1OC)C(COc1ccc(F)cc1)N(C(=O)c1ccccc1F)CC2 (configuration not stated) | inconclusive: 56.2 µM [inhibitor, partial curve, poor fit] |

| SMILES | Potency |
| --- | --- |
| Cc1cccc(-c2nnc(SCC(=O)N3CCCc4ccccc43)o2)c1 | inconclusive: 35.5 µM [inhibitor, full curve] |
| Cc1cc(C)c(S(=O)(=O)N2CCN(Cc3nc4ccc(C)cc4o3)CC2)c(C)c1 | inconclusive: 14.1 µM [inhibitor, full curve, poor fit] |
| O=C(O)CC(NS(=O)(=O)c1ccc(Br)s1)c1ccccc1 (configuration not stated) | inconclusive: 79.4 µM [inhibitor, single point] |
| S=c1sc(SCc2ccccc2)c(SCc2ccccc2)s1 | inactive |
| C=CCN(CC=C)C(=O)c1cc(-c2ccc(OC)cc2)nc2ccccc12 | inactive |
| CN(CC(=O)Nc1ccc2c(c1)OC1(CCCCC1)O2)Cc1ccsc1 | inconclusive: 56.2 µM [inhibitor, partial curve, poor fit] |
| N#Cc1ccc(F)c(COC(=O)c2ccc(N3CCOCC3)nc2)c1 | inactive |
| O=C(O)c1ccc(Nc2nc(-c3ccccc3)c3cc(Br)ccc3n2)cc1 | inconclusive: 89.1 µM [inhibitor, partial curve, poor fit] |
| Cc1ccc(N(Cc2cccs2)C(=O)c2ccccc2)cc1 | inconclusive: 56.2 µM [inhibitor, partial curve, poor fit] |
| O=C(NCCn1cc(SCc2cccc(F)c2)c2ccccc21)c1cccc(C(F)(F)F)c1 | inconclusive: 44.7 µM [inhibitor, partial curve, poor fit] |
| CCOC(=O)c1cc(-c2ccccc2)n(CCC(=O)Nc2ccc(C(F)(F)F)cc2)c1C | inconclusive: 28.2 µM [inhibitor, full curve, poor fit] |
| CC(C)c1ccc(-c2nc3cc(N)ccc3o2)cc1 | inconclusive: 56.2 µM [inhibitor, partial curve, poor fit] |
| CCOc1ccc(Nc2c(S(=O)(=O)c3ccc(Cl)cc3)cnc3ccc(OC)cc23)cc1 | inconclusive: 100 µM [inhibitor, single point] |
| O=C(Nc1ccc(F)cc1)N1CCN(c2ccc3nnc(-c4ccc(F)cc4)n3n2)CC1 | inconclusive: 35.5 µM [inhibitor, partial curve] |
| CC(C)(C)c1ccc(CSc2nc3c(c(=O)[nH]2)CCCC3)cc1 | inactive |
| COc1ccc(N2C(=O)c3cc4oc(C)cc4n3CC2(C)C(=O)NC2CCCCCC2)cc1OC (configuration not stated) | inactive |
| CC1CC(C)(C)Nc2c(O)cccc21 (configuration not stated) | inconclusive: 100 µM [inhibitor, single point] |
| CCCCN(Cc1cccs1)S(=O)(=O)c1cc(-c2cc(C)no2)ccc1C | inconclusive: 11.2 µM [inhibitor, full curve, poor fit] |
| COc1ccc(OC)c(CN2CCCC(C(=O)N3CCCCCC3)C2)c1 (configuration not stated) | inactive |
| COc1ccc(NC(=O)c2cnc(SC)nc2-c2ccccc2)cc1OC | inactive |
| CCOc1ccccc1C(=O)Nc1cccc2ccc(C)nc12 | inconclusive: 70.8 µM [inhibitor, partial curve, poor fit] |
